In patent US7655454B1, “Bacteriological culture medium for Campylobacteriaceae species” (priority 2005, dated 2010):

Columns and labels:
[1] = test system: Campylobacter jejuni subsp. doylei ATCC 49349; conditions: P<0.05; for absorbance compared with isolates grown in the control media: approximately 20, 30, 40 and 50 mM acid
[2] = test system: Campylobacter fetus subsp. fetus ATCC 27374

CC(O)C(=O)O (racemic) [Lactic, DL-lactic acid]
absorbance compared with cultures grown in non-supplemented media ([1]; approximately 50 mM acid): not significantly different | absorbance compared with cultures grown in non-supplemented media ([2]; approximately 50 mM acid, P<0.05): not significantly different

O=C(O)CCC(=O)O [Succinic, succinic acid]
absorbance compared with isolates grown in the control media [1]: significantly higher

O=C(O)CC(O)(CC(=O)O)C(=O)O [Citric, citric acid]
OD of cultures compared with cultures in non-supplemented media [2]: inability of citric acid to stimulate Campylobacter growth at any level of supplementation

O=C(O)CC(O)C(=O)O (racemic) [Malic, DL-malic acid]
absorbance compared with isolates grown in the control media [1]: significantly higher | absorbance at approximately 50 mM compared with approximately 40 mM of the same acid ([2]; P<0.05): significantly lower

O=C(O)/C=C/C(=O)O [Fumaric, fumaric acid]
absorbance compared with isolates grown in the control media [1]: significantly higher
